This note sets out measurements from the BET-seq Pho4 binding data (Le et al. 2018).

Some of the results follow. These are noisy estimates, calculated here from bound and input reads.

The target in this assay is T1, Pho4 (S. cerevisiae) (UniProt P07270).
T1 sequence: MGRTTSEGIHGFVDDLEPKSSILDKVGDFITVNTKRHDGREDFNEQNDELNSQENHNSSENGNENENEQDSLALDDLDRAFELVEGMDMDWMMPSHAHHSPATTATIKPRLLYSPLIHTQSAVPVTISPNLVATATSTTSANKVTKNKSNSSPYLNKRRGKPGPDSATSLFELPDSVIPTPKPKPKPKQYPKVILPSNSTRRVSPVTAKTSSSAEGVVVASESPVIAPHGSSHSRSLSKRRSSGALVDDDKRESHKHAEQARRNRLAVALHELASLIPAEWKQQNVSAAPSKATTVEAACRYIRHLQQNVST
The assay is described as follows: relative binding free energy (BET-seq); higher = weaker binding. Particulars: reference: library average.
As for GTAATCACGTGGGGGG, the “relative binding free energy” value was found to be 0.335 kJ/mol. Turning to AGGAGCACGTGGGGGG, the “relative binding free energy” value was -0.92 kJ/mol.

Consider TTCTGCACGTGTGCTT, for which the “relative binding free energy” value was determined as 0.167 kJ/mol. Then GCGAGCACGTGGGGGT, with -0.669 kJ/mol; and GCATTCACGTGTAGTG, with 0.795 kJ/mol; and GACTGCACGTGTGGTA, with 0.293 kJ/mol. For GTAGGCACGTGATGTG, the “relative binding free energy” value is -0.0837 kJ/mol. With TAAGCCACGTGTGTTT the figure was 0.46 kJ/mol; with GGCGGCACGTGGTAGA, -0.335 kJ/mol.

Take AGACGCACGTGTGGCG: the “relative binding free energy” value was -0.544 kJ/mol. For the sequence GTGTTCACGTGGTAAA, the “relative binding free energy” value was determined as 1.17 kJ/mol. Regarding GGCGTCACGTGGGACG, the “relative binding free energy” value was 0.502 kJ/mol. On to CGTGGCACGTGGGCTG, for which the “relative binding free energy” value is -1.13 kJ/mol.

For the sequence TTGGGCACGTGGGGTC, the “relative binding free energy” value was -0.669 kJ/mol. Take TGATGCACGTGACATG: the “relative binding free energy” value was 0.335 kJ/mol. Then CTTGTCACGTGTATTT, with 0.46 kJ/mol; and ATTGACACGTGTTTGT, with -0.209 kJ/mol; and TAGTTCACGTGGCGTG, with 0.837 kJ/mol. With CGTTGCACGTGACGTT the figure was 0.753 kJ/mol; with GCAGGCACGTGTGCGG, -0.879 kJ/mol; with ATAGGCACGTGTGAGA, 0.251 kJ/mol. Then AGTTACACGTGTGGAA, with 0.251 kJ/mol; and ATGGACACGTGATGGT, with 0.669 kJ/mol.

For GAGACCACGTGGTGTG, the “relative binding free energy” value is 0.293 kJ/mol.

With ATGTTCACGTGTTCTT, the “relative binding free energy” value is 0.46 kJ/mol.

As for GTTGACACGTGGTTAA, the “relative binding free energy” value is -0.126 kJ/mol.

On to GTTGACACGTGGTGGA, for which the “relative binding free energy” value was 0.251 kJ/mol. Regarding TTAATCACGTGATGGG, the “relative binding free energy” value came out at 1.34 kJ/mol. Take TGGATCACGTGGGTGT: the “relative binding free energy” value amounted to 0.46 kJ/mol. As to TTAGGCACGTGCAGTT, the “relative binding free energy” value was -0.335 kJ/mol. Then GTTGTCACGTGGCTTG, with 0.126 kJ/mol; and GATTGCACGTGGGCAT, with -0.0418 kJ/mol; and TTGGGCACGTGAAGCG, with 0.251 kJ/mol. With GGAGGCACGTGTGCGT the figure was -0.586 kJ/mol; with GTTAACACGTGAATGG, 1 kJ/mol; with TTACGCACGTGAAGTT, 0.669 kJ/mol. Then TGTGGCACGTGCGAAT, with 0.167 kJ/mol; and GGGTACACGTGGTGGG, with 0.251 kJ/mol. For GGTTGCACGTGTCGCT, the “relative binding free energy” value was 0.167 kJ/mol.

Take TTGAGCACGTGCGTGT: the “relative binding free energy” value is -0.962 kJ/mol. With GGACTCACGTGTGTGG the figure was 0.46 kJ/mol; with TGAGGCACGTGGAATT, 0.209 kJ/mol. Then TTAGACACGTGCGTGG, with -0.0418 kJ/mol; and TGTTACACGTGGATAA, with 0.293 kJ/mol; and GGTGACACGTGTGGGT, with 0.46 kJ/mol. With AGTCTCACGTGCTTGT the figure was 1.34 kJ/mol.

With TGGATCACGTGAGTAA, the “relative binding free energy” value was 1.17 kJ/mol. Then AGTGACACGTGACTGT, with 0.0418 kJ/mol; and GATCGCACGTGGGAGT, with -0.209 kJ/mol. With CGTGGCACGTGGCGGT the figure was -0.711 kJ/mol. Take TGTTTCACGTGTAATA: the “relative binding free energy” value was determined as 1.05 kJ/mol. Then CATTACACGTGTAGGT, with 0.167 kJ/mol; and TGGCACACGTGTAGGT, with 0.209 kJ/mol; and TTATACACGTGTCATG, with -0.418 kJ/mol. With GCGTGCACGTGTCGGT, the “relative binding free energy” value worked out at 0.293 kJ/mol. With TGAGTCACGTGTTAGT the figure was 0.92 kJ/mol; with TAAATCACGTGTGTTT, 0.335 kJ/mol. Then CTGTTCACGTGGTGCA, with 0.669 kJ/mol; and TGTTCCACGTGCTGTG, with 0.0837 kJ/mol. Then TTTTGCACGTGAACGG, with 0.586 kJ/mol. In the case of ATGGCCACGTGAGTGT, the “relative binding free energy” value stood at 0.753 kJ/mol. With GGGTGCACGTGTAGTT the figure was 0.0418 kJ/mol; with GGTGACACGTGTGGGG, 0.586 kJ/mol. With TAGTGCACGTGTCATT the figure was -0.335 kJ/mol. With TGGAGCACGTGTCTCG the figure was 0.335 kJ/mol; with TAGAGCACGTGATGGT, 0.418 kJ/mol. Take TTGGACACGTGGTTCT: the “relative binding free energy” value is -0.335 kJ/mol. With GTCGGCACGTGAATAG the figure was 0.795 kJ/mol. With AGTAGCACGTGATGCT the figure was -0.0418 kJ/mol.

Take TGTGTCACGTGTGCCT: the “relative binding free energy” value was -0.251 kJ/mol. With GCTTGCACGTGTATGA the figure was 0.335 kJ/mol; with CAAGCCACGTGGGGGG, -1.42 kJ/mol; with TGGCGCACGTGCTAGG, -0.502 kJ/mol.

Consider ATTAGCACGTGATATA, for which the “relative binding free energy” value was found to be 0.126 kJ/mol. Consider ATGTACACGTGGGGGA, for which the “relative binding free energy” value is -0.418 kJ/mol. With ATTTGCACGTGTGGAC the figure was 0.418 kJ/mol. With TGATGCACGTGTTAGA the figure was 0.0837 kJ/mol; with CTTGGCACGTGGCGGC, -0.669 kJ/mol; with GTTGACACGTGAGTGG, 0.879 kJ/mol. Take GAGGGCACGTGGAGCG: the “relative binding free energy” value stood at 0.0418 kJ/mol. Then TAAAGCACGTGTATTG, with -0.293 kJ/mol. Then TTGGTCACGTGGGTGA, with 0 kJ/mol. Then TGCTGCACGTGCGGGT, with -0.418 kJ/mol; and GACTACACGTGGTGGT, with 0.418 kJ/mol; and AAGGACACGTGTGGCG, with 0.962 kJ/mol. Regarding GGCTTCACGTGTGGAA, the “relative binding free energy” value was determined as 1.46 kJ/mol. Then GGTAACACGTGTAAAG, with 0.502 kJ/mol; and AAACGCACGTGGGGGG, with -1.3 kJ/mol. Take CTTCGCACGTGGTTGG: the “relative binding free energy” value was -0.335 kJ/mol.

Regarding TCATTCACGTGGTGAG, the “relative binding free energy” value amounted to 1 kJ/mol.

Take TGTAGCACGTGTGTGC: the “relative binding free energy” value was -0.167 kJ/mol.

On to TATGACACGTGGAGAT, for which the “relative binding free energy” value was determined as 0.418 kJ/mol. With GCGAGCACGTGTGTGA the figure was -0.293 kJ/mol; with GGGAGCACGTGGCATT, -0.544 kJ/mol; with TTAGACACGTGAAATG, 1.34 kJ/mol.

Consider CTTGACACGTGGTGGA, for which the “relative binding free energy” value was 0.0837 kJ/mol.

Turning to TATTGCACGTGCGTAG, the “relative binding free energy” value is -0.92 kJ/mol. With AGGTCCACGTGATGGT the figure was 0.628 kJ/mol. Take GTGAGCACGTGTAAGT: the “relative binding free energy” value is -0.46 kJ/mol. With AAGGACACGTGATAGG the figure was 0.962 kJ/mol; with GTGGGCACGTGTATAT, -0.335 kJ/mol. With TGTGGCACGTGACTGA the figure was 0.209 kJ/mol; with TAGACCACGTGGTAGT, -0.293 kJ/mol; with GAAGTCACGTGGGATT, 0.962 kJ/mol. Then TGAGGCACGTGGGCAT, with -0.586 kJ/mol. As to GCTGACACGTGTTAGT, the “relative binding free energy” value worked out at 1.05 kJ/mol.

Consider TTGCGCACGTGAGTGT, for which the “relative binding free energy” value came to 0.753 kJ/mol.

In the case of TTCATCACGTGATTTG, the “relative binding free energy” value is 1.51 kJ/mol. Take ATCGGCACGTGTATTG: the “relative binding free energy” value is -0.418 kJ/mol. Then TTGGCCACGTGTATGT, with -0.293 kJ/mol. As for GGGGTCACGTGTCACG, the “relative binding free energy” value is 0.669 kJ/mol.

As to ATTTCCACGTGTGATT, the “relative binding free energy” value was found to be 0.502 kJ/mol. Then TCGGGCACGTGGAGCG, with 0 kJ/mol; and ACATTCACGTGTATGT, with 0.795 kJ/mol.

GTTGGCACGTGGTCTT: the “relative binding free energy” value is -0.209 kJ/mol.
